Results published in PubChem BioAssay AID1159614 (National Center for Advancing Translational Sciences (NCATS), 2016).
About 65 (0.1%) of roughly 45,000 compounds were called active. Calls follow the shape of the dose curve; as a rule, active = well fitted activation curve with a large enough effect; inconclusive = small, poorly fitted or top-dose-only effect; inactive = no such curve, though single readings can be large or run the other way. The list shows a part of the results.

biological target: Galactocerebrosidase (Homo sapiens) (UniProt P54803); test: A Novel Cell-Based Assay to Identify Small Molecules for B -Galactocerebrosidase; conditions: 145M-Twi-hGALC-G270D cells (Twitcher mouse brain line with human GALC G270D), HMU-beta-Gal fluorescence, 48 h; series mostly up to 57.5 µM; activation: at the top concentration; also: 0% is about no effect; nearly all actives have a fitted effect of over 65% in size
Chain of UniProt P54803 (P54803 whole entry, looked up): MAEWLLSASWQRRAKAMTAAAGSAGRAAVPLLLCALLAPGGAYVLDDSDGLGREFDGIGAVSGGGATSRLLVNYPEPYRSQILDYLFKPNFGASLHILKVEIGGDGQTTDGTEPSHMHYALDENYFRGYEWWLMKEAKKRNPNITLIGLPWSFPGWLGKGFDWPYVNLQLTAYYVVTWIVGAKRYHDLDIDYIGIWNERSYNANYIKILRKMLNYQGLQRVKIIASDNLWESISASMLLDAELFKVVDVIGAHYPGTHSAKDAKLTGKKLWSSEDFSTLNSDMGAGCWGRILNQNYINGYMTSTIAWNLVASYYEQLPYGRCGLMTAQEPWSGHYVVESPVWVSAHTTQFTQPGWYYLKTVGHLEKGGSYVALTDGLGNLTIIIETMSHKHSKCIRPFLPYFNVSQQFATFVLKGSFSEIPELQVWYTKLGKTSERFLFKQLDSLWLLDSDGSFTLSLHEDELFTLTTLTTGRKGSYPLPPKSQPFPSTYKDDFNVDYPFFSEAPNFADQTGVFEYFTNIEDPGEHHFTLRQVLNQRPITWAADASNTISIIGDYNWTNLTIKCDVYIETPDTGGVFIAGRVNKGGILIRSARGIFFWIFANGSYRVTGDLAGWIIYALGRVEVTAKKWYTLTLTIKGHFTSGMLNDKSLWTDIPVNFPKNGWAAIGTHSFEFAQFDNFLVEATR
Text: Lysosomal storage diseases (LSDs) are caused by genetic mutations in genes encoding proteins important for normal lysosomal function. Globoid cell leukodystrophy (GLD), mostly known as Krabbe disease, is a prototype of the neurological LSDs caused by deficiency of beta-galactocerebrosidase (GALC). In brain specimens of GLD patients, psychosine levels are substantially elevated. At elevated concentrations, psychosine becomes cytotoxic to neuronal cells, particularly to oligodendrocytes (OLG), neural cells responsible for myelin formation. Therefore, the biochemical disturbances in GLD are manifested by different degrees of brain demyelination resulting in a broad spectrum of neurological manifestations. Most of the FDA-approved therapies are based on enzyme replacement therapeutic (ERT) agents, which treat non-neurological symptoms of Gaucher disease, Fabry disease, few mucopolysaccharidoses and Pompe disease. Unfortunately, in GLD, a primarily neurological LSD, ERT agents, as large molecular weight molecules unable to cross the blood-brain barrier, which makes this an inefficacious therapeutic approach. In GLD, increasing the residual GALC activity just above the critical threshold (~10% of wild type enzymatic activity), the cytotoxic levels of psychosine will be reduced, avoiding the OLGs apoptosis and the subsequent demyelination process. This will translate in disease stabilization and amelioration of GLD patient symptoms.
A cell-based assay in 1,536-well plate format was developed to implement a quantitative high-throughput screening (qHTS) assay using GLD-disease relevant cells to identify small molecules that produce enhancements of the residual enzymatic activity levels of mutants GALC found and prevalent in GLD patients. Compounds that are active may therefore have some therapeutic application for GLD. After the treatment of live cells for a determined period, using a fluorescent GALC specific substrate, the mutant residual GALC activity is measured. This cell-based qTHS assay was used to screen part of the MLPCN library for small molecule able to increase the mutant GALC enzymatic activity. In this assay, increased fluorescent signal corresponds to enhanced levels of mutant GALC residual enzymatic activity. Activation is the desired outcome for this assay.
NIH Chemical Genomics Center [NCGC]
NIH Molecular Libraries Probe Centers Network [MLPCN]
Assay Submitter (PI): Gustavo Maegawa MD,PhD, University of Florida, Gainesville, FL
2)#Two cell lines were established for the assay: 145M-Twi-hGALC-G270D (brain-derived Twitcher cell line stably expressing human GALC-G270D) and 145M-Twi-hGALC-WT (same 145M-Twi stably expressing human GALC wild type). The Twitcher is the murine C57B/6 model for GLD with naturally occurring homozygous nonsense GALC mutation. The 145M-Twi cell line was established at Maegawa lab (Ribbens J et al 2014).
a.#Media: DMEM/F12 (1:1) with 10% fetal bovine-serum (FBS) with penicillin/streptomycin (PS-1X - 100 I.U./mL of penicillin+100 ug/mL of streptomycin).
b.#The 6-Hexadecanoylamino-4-methylumbelliferyl-b-D-galactoside (HMU-B-gal) substrate was prepared as per Wiederschain et al 1992. Using 20-mL borosilicate tubes, 2.20 mg of HMU-b-Gal was added in each tube to prepare substrate-film with a final air-nitrogen stream evaporation to remove all diluent solvents.
c.#The HMUb-Gal substrate buffer consists of 0.2 M Na2HPO4 (sodium phosphate dibasic)/ 0.1 M Citric Acid with the pH adjusted to 5.2 using HCl. Sodium Azide at 0.02% and Sodium Taurocholate (NaTC) at 1 mg/mL were added to this substrate buffer.
d.#The HMU-b-Gal stopping buffer consist of 0.5 M NaHCO3 (sodium bicarbonate) /0.5 M Na2CO3 (sodium carbonate). […] Triton X-100 at 0.25% was added.
4)#Preparation of HMU-b-Gal substrate tubes
Adding 18.6 mL of the HMUb-Gal substrate buffer to each 20-mL tube (2.20 mg of HMU-b-Gal) will reach a concentration of 0.2 mM. Vortex well the tube until the solution is fully homogenized (clear cloudy solution). […]

activation, inactive:
O=C(CSc1nccn1Cc1ccco1)Nc1ccc(OC(F)(F)F)cc1 -22.3%
Cc1cc(=O)[nH]c2nnc(SCc3cccc(C(F)(F)F)c3)n12 -8.62%
CCOc1ccc(CN(CCc2ccc3c(c2)OCO3)Cc2cc(OC)cc(OC)c2)cc1 -21.9%
Cc1ccc2c(CNCCc3ccco3)c(C(=O)O)n(Cc3ccc(F)cc3)c2c1 -5.69%
COc1ccc(NC(=O)CCCc2nnc3n(C(C)C)c(=O)c4sccc4n23)cc1Cl -4.25%
Cc1nn(-c2ccccc2)c(-n2cccc2)c1C(=O)NCCCN1CCN(c2ccccc2F)CC1 -6.75%
Cc1ccc(OCC(=O)OCc2cc(=O)n3ccsc3n2)cc1C -12%
Cc1nc2ccc(S(=O)(=O)NCC(=O)NCc3ccc(Cl)cc3)cc2s1 -6.87%
COc1ccccc1N1CCN(c2ncc3c(n2)CCN(Cc2ccccc2C)C3)CC1 -4.62%
CCOc1ccc(NC(=O)Cn2c(=O)nc(-c3ccccc3)c3ccccc32)cc1 -5.99%
Cc1ccc(C)c(NC(=O)CSc2cn(CC(=O)N3CCCCC3)c3ccccc23)c1 -5.79%
COc1ccc(OC(=O)c2cc(-c3ccc4c(c3)OCCO4)on2)cc1 -7.29%
Cc1nc(N2CCOCC2)c2c(C(=O)N3CCN(c4cccc(C(F)(F)F)c4)CC3)c(C)oc2n1 -11.2%
COc1ccc(NC(=O)C(Cc2ccccc2)NS(=O)(=O)c2ccc3c(c2)oc(=O)n3C)c(OC)c1 (stereo not given) -10.6%
Cc1cccc2nc(-c3ccc(Cl)s3)c(Nc3ccc4c(c3)OCCO4)n12 -12.1%
CC(C)c1ccc(NC(=O)Cn2nnc(C(=O)NCCc3ccccc3)c2N)cc1 0.569%
COc1cc(Cl)c(NC(=O)CN2C(=O)c3cccnc3Sc3ccccc32)c(OC)c1 -5.15%
Cn1nc(-c2ccc(N3CCCCC3)c(NC(=O)c3ccc(Cl)cc3)c2)c2ccccc2c1=O -7.98%
CN(C)CCNC(=O)c1ccc(Cn2c(=O)c3cccn3c3cccnc32)cc1 -4.04%
CCOc1ccccc1NC(=O)c1nn(C)c2c1CSc1ccccc1-2 3.33%
COc1ccc(C)cc1NC(=O)CN1C(=O)COc2ccc(S(=O)(=O)NC3CCCC3)cc21 -18.1%
CCOc1ccc(-c2csc(-c3c(N)c(C(=O)c4ccc5c(c4)OCO5)n4ccccc34)n2)cc1 -7.91%
CC(=O)c1cccc(Nc2ccc3cc(S(=O)(=O)N4CCCC4)ccc3n2)c1 -8.25%
CCCn1c(=NC(=O)c2c(-c3c(F)cccc3Cl)noc2C)c(C(=O)OCC)cc2c(=O)n3ccccc3nc21 -8.47%
COc1ccc(NC(=O)c2cc(=O)c3ccc(C)c(C)c3o2)cc1Cl -24.1%
Cc1ccc(-n2ncc(C(=O)NCCN3CCc4ccccc4C3)c2C2CCNCC2)cc1C -24.1%
Cc1ccccc1CSc1nc2c([nH]c3ccccc32)c(=O)n1C -12.1%
CCOC(=O)c1cc(S(=O)(=O)Nc2ccccc2OCC)[nH]n1 -4.37%
COc1ccc(-n2c(=O)c3c4c(sc3n3c(SC(C)C)nnc23)COC(C(C)C)C4)cc1 (stereo not given) -9.86%
CCCc1cc(=O)[nH]c(SCc2nc(-c3ccccc3F)no2)n1 -1.07%
CCOc1ccc(NC(=O)C(C)Sc2nc3ncccc3o2)cc1 (stereo not given) -6.92%
CCN(CC)CCN -19.3%
CC1CCN(S(=O)(=O)c2ccc3c(c2)N(CC(=O)NCCCN2CCCC(C)C2)C(=O)CS3)CC1 (stereo not given) -5.78%
Cc1cccc(CNC(=O)c2ccc(NC(=O)N3CCSc4ncccc43)cc2)c1 1.32%
Cc1cccc(NC(=O)c2oc3ccc(S(=O)(=O)N4CCC5(CC4)OCCO5)cc3c2C)c1C -9.47%
Cc1ccc2c(c1)-c1ncc(C(=O)c3cc(Br)ccc3O)cc1CO2 12.3%
CC(=O)c1ccc(N2CCN(c3ncnc4c3cnn4C)CC2)cc1 -9.1%
COc1ccc(-n2nc(C(=O)Nc3cccc(C)n3)c3c4ccccc4n(C)c3c2=O)cc1 -1.58%
Cc1cc(C)cc(NC(=O)Cn2c(=O)n(Cc3ccc4c(c3)OCO4)c(=O)c3oc4ccccc4c32)c1 5.03%
Cc1cccc(CNC(=O)Cn2ccc3cc(S(=O)(=O)N4CCC(C)CC4)ccc32)c1 -7.18%
CCOC(=O)C1CCN(C(=O)Cn2ncc3c([nH]c4ccccc43)c2=O)CC1 3.6%
CCOC(=O)c1c(C)[nH]c(C)c1S(=O)(=O)N(C)CC(=O)Nc1cccc(C(F)(F)F)c1 3.08%
COc1cccc(C2CC(=O)Nc3c2c(=O)n(C)c2nc4ccccc4n32)c1 (stereo not given) -10.4%
COc1ccccc1-c1cc(C(F)(F)F)nc(S(=O)(=O)CCCC(=O)Nc2ccc(F)cc2F)n1 -14.5%
COc1ccc(-c2ccc(CCC(=O)O)n2-c2cc(Cl)ccc2O)cc1 -11%
O=C(Cn1c(=O)n(Cc2nc(-c3ccccc3)no2)c(=O)c2cc3c(cc21)OCO3)Nc1cccc(C(F)(F)F)c1 -18.2%
Cc1cccc(C(=O)Nc2nc(-c3nnn(-c4cc(C)ccc4C)c3C)ns2)c1 -24.6%
CCOC(=O)c1cnc(N2CCN(c3ccc(C)cc3C)CC2)c2ccccc12 -10.5%
Cn1c(=O)c2c(SCC(=O)Nc3ccc(F)cc3F)nc(C3CCCC3)nc2n(C)c1=O 5.02%
CC(C)(C)c1ccccc1NC(=O)c1cnn2c(C(F)F)cc(-c3ccccc3)nc12 -13.2%
COc1ccccc1NC(=O)CSc1oc(-c2ccc(F)cc2)nc1S(=O)(=O)c1ccc(Br)cc1 -9.64%
Cc1ccccc1CNC(=O)c1ccc2[nH]c(C)c(C)c2c1 3.09%
CSc1cccc(NC(=O)CN2C(=O)COc3ccc(S(=O)(=O)N4CCC(C)CC4)cc32)c1 -14%
Cc1ccc(C)c(NC(=O)Cn2ccn(-c3ccc(F)cc3)c(=O)c2=O)c1 -10.4%
Cc1ccc(-c2nc3c4ccccc4n(CC(=O)N4CCN(c5ccc(F)cc5)CC4)c(=O)n3n2)cc1 -2.16%
OC1C(O)C(O)C(O)C(O)C1O (stereo not given) -7.36%
Cc1cc(C)cc(Nc2cc(C)nc3nc(-c4ccco4)nn23)c1 -8.02%
Cc1ccc(CN(C(=O)c2ccccc2[N+](=O)[O-])c2ccccn2)cc1 -27.2%
Cc1cc(N2CCC(C(=O)NCCC(C)C)CC2)n2nc(C)c(-c3ccc(Cl)cc3)c2n1 -4.21%
CCC(C)NC(=O)Cn1c(-c2cccs2)cc2cc(Cl)ccc21 (stereo not given) -12.7%
CCOC(=O)c1c(NC(=O)c2cc(-c3ccc(Cl)cc3)on2)sc(C)c1C -17.8%
CCOc1ccc(CCNC(=O)c2ccc3c(c2)sc2nc(-c4ccc(F)cc4)cn23)cc1OCC -13.7%
O=S(=O)(NCCc1csc2nc(-c3ccc(F)cc3)nn12)c1ccc(Oc2ccccc2)cc1 -17.9%
Cc1cc(C)cc(N2C(=O)CCSC23C(=O)N(Cc2ccccc2)c2ccccc23)c1 (stereo not given) 3.67%
CC(C)(C)NC(=O)c1ccc2nc(CCc3ccccc3)oc2c1 -17.3%
Cc1ccc(Cl)cc1NC(=O)Cn1ncc2c(C)n(Cc3ccccc3F)c(C)c2c1=O -19%
CC1CN(C(=O)CCC(=O)NCc2ccccc2)c2cc(Cl)ccc2O1 (stereo not given) -5.73%
COc1ccc(-c2nc(-c3ccccc3)c(-c3ccc(F)cc3)[nH]2)c(OC)c1C -4.19%
Cc1nc2sccn2c(=O)c1S(=O)(=O)Nc1ccc(N2CCN(C(=O)C(C)C)CC2)cc1 -5.84%
COc1cc(C(=O)Nc2nonc2-c2ccc(Cl)cc2)cc(OC)c1OC 1.91%
Cc1ccc(N2CC(NC(=O)C3CC3)CC2=O)cc1C (stereo not given) -12.8%
CCOC(=O)c1ccn(-c2nc(-c3cccc(OC)c3)cc(C(F)(F)F)n2)n1 -14.2%
CCOC(=O)c1[nH]c(C)c(CCC(=O)Nc2ccc(Br)c(C)c2)c1C -13.7%
COc1cccc(NC(=O)N(Cc2c[nH]c3ccccc23)C2CCCCC2)c1 -4.66%
Cc1ccc(C(CC(=O)Nc2ccc(F)c(Cl)c2)N2Cc3ccccc3C2=O)cc1 (stereo not given) -3.89%
CC(C)c1ccc(NC(=O)CCn2c(=O)c3cccn3c3ccccc32)cc1 -6.77%
COc1cccc(CNCCSc2nnnn2C)c1OCc1ccc(F)cc1 -9.38%
CCOc1ccc(C(c2c(O)cc(C)n(Cc3ccco3)c2=O)N2CCN(c3ccccc3)CC2)cc1 (stereo not given) -15.9%
COc1ccc(NC(=O)CSC2=Nc3ccccc3C3=NC(CC(=O)NCc4ccc5c(c4)OCO5)C(=O)N23)cc1 (stereo not given) -0.965%
CCCc1cnc2c(c1SCC(=O)Nc1ccccc1F)c(=O)n(C)c(=O)n2C -19.3%
Cc1cccc(CNC(=O)C2CCN(S(=O)(=O)c3ccc4c(c3)CCCN4C(=O)C3CCC3)CC2)c1 -12.3%
CCCCCc1nn2cc(-c3ccccc3)nc2s1 -0.936%
Cn1nnnc1SCCCNCc1cc(Cl)ccc1OCc1ccccc1F -8.72%
COC(=O)c1ccc(NC(=O)CC2C(=O)N(c3ccccc3)C(=O)N2Cc2ccco2)cc1 (stereo not given) -7.61%
Cc1ccc(NC(=O)Cn2cnc3sc(C)c(S(=O)(=O)N4CCN(c5ncccn5)CC4)c3c2=O)cc1F -9.65%
Cc1cccc(N2CCN(S(=O)(=O)c3c(C(=O)N4CCC(C)CC4)c(C)n(C)c3C)CC2)c1C -7.98%
COc1cc(Nc2ncc3c(n2)CCN(Cc2cc(F)cc(F)c2)C3)cc(OC)c1 -28.2%
CCCC12CN3CC(CCC)(CN(C1)C3c1c(C)[nH]c(=O)[nH]c1=O)C2=O (stereo not given) -12.3%
O=C(Nc1ccc(F)cc1F)N1CCN(c2ccc(Cl)c(Cl)c2)CC1 -9.87%
CCc1nn(Cc2c(C)cc(C)cc2C)c(=O)c2cc3cc(C)ccc3n12 -6.75%
Cc1ccc(C2C=C(c3ccc(Cl)cc3)Nc3nc(NC(=O)c4ccco4)nn32)cc1 (stereo not given) -1.9%
CCCCN(C)c1nnc(NC(=O)Nc2ccc(Br)c(C)c2)s1 -23%
Nc1cc(C(Cl)=C(Cl)Cl)c(S(N)(=O)=O)cc1S(N)(=O)=O -8.25%
CCn1cc2nc(SCC(=O)Nc3ccc(OC)cc3OC)n(Cc3ccc(Cl)cc3)c(=O)c2n1 -2.63%
CCOCCc1nn2c(=O)cc(COC(=O)c3ccccc3NC(=O)c3ccc(C)cc3)nc2s1 -4.12%
